From PubChem BioAssay (NCATS)
“And” between values parts separate entries of the source, which are not always exact repeats. Equal values may be shown once. The inconclusive results got no clear call from the source; some entries with a clear call stand among them for comparison. A potency beside an inconclusive call is a rough fit, not a confirmed value. The source made the active and inactive calls. Calls follow the shape of the dose curve; as a rule, active = well fitted inhibition curve with a large enough effect in the repeat runs; inconclusive = weak or mixed curves; inactive = flat fitted curve, though single readings scatter.

These compounds were tested against Cytochrome P450 2D6 (Homo sapiens) (UniProt P10635) (assay: Cytochrome P450 family 2 subfamily D member 6 (CYP2D6) small molecule antagonists: luciferase biochemical (cell-free) qHTS assay (AID 1645840; also: nearly all actives have a fitted effect of over 55% in size)). Details: P450-Glo CYP2D6 enzyme, luciferin luminescence, 1 h; series mostly up to 57.4 µM.
Chain of UniProt P10635 (P10635 whole entry, looked up): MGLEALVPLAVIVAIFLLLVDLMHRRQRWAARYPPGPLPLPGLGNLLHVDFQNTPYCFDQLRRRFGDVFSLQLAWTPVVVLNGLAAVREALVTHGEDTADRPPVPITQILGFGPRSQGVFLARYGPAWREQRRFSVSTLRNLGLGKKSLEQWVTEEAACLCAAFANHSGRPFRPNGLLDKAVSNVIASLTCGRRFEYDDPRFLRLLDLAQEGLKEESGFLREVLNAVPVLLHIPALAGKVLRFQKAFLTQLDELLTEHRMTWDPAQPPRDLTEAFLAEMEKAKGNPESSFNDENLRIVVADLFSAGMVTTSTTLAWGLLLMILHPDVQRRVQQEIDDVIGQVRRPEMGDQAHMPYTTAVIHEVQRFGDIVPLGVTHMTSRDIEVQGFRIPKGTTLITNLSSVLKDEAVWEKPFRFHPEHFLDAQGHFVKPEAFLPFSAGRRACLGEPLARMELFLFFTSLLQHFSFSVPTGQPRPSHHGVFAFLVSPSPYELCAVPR
Summary of the method: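 P450-Glo CYP2D6 system: proluciferin substrate converted by enzyme to luciferin, read by luminescence proportional to activity. Enzyme-substrate mix with compound 10 min at room temperature, then NADPH regeneration 1 h before detection reagent.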
Potency is read from the fitted curve at half-maximal effect; tags tell the direction and shape of the fitted curve.

| SMILES | Potency |
| --- | --- |
| COCCCOc1cc(C[C@@H](C[C@H](N)[C@@H](O)C[C@H](C(=O)NCC(C)(C)C(N)=O)C(C)C)C(C)C)ccc1OC | inactive |
| CN1C(C(=O)Nc2ccccn2)=C(O)c2ccccc2S1(=O)=O | inactive |
| CC(C)(C)NC(=O)Nc1cccc(Nc2ncc(F)c(NC(C)(C)CO)n2)c1 | inconclusive: 21.3 µM [inhibitor, single point] |
| O=C(C1CCCCC1)N1CC(=O)N2CCc3ccccc3C2C1 (configuration not stated) | inconclusive: 34.7 µM [inhibitor, single point] |
| CCn1c(C(=O)N(C2CC2)C2CC2)cc2c3c(ncn3C)c(Nc3cc(C)n(C)n3)nc21 | inactive |
| Cn1c2cc(S(C)=O)sc2c2cnn(Cc3cccc(N)c3)c(=O)c21 (configuration not stated) | inconclusive: 19 µM [inhibitor, partial curve] |
| CNC(=O)[C@H](Cc1ccccc1)NC(=O)[C@H](CC(C)C)[C@H](CSc1cccs1)C(=O)NO | inactive |
| O=c1oc2c(O)c(O)cc3c(=O)oc4c(O)c(O)cc1c4c23 | inactive |
| CCCN[C@H]1CCc2nc(N)sc2C1 | inconclusive: 24.5 µM [inhibitor, single point] |
| Cc1cccc2c1CC[C@H](CN1CCC(c3c(Cl)cccc3Cl)CC1)C[C@@H]2O | active: 2.13 µM |
| CCCCOc1ccc(C(=O)Nc2ccc(F)cc2F)cc1 | inconclusive: 5.35 µM [inhibitor, partial curve] and inconclusive: 1.9 µM [inhibitor, full curve, poor fit] |
| CNC(=O)c1ccc(-c2cnc3ncc(Cc4ccc5ncccc5c4)n3n2)cc1F | inconclusive: 26.8 µM [inhibitor, single point] |
